Measured values reported in the supplement of paper PMC3334620.
The full ranking holds about 33,000 sequences; the median of “E-score (-0.5 to 0.5)” is about -0.043, and the highest 2% start at about 0.37. The list shows a part of the results.

target: T1, Upc2 (UniProt Q12151); test: PBM E-score (8-mer binding enrichment) (E-score (-0.5 to 0.5)); higher = stronger / more preferred TF binding; most listed sequences are background and not binding sites; settings: protein concentration: 200 nM; construct: GST-full length
T1 sequence: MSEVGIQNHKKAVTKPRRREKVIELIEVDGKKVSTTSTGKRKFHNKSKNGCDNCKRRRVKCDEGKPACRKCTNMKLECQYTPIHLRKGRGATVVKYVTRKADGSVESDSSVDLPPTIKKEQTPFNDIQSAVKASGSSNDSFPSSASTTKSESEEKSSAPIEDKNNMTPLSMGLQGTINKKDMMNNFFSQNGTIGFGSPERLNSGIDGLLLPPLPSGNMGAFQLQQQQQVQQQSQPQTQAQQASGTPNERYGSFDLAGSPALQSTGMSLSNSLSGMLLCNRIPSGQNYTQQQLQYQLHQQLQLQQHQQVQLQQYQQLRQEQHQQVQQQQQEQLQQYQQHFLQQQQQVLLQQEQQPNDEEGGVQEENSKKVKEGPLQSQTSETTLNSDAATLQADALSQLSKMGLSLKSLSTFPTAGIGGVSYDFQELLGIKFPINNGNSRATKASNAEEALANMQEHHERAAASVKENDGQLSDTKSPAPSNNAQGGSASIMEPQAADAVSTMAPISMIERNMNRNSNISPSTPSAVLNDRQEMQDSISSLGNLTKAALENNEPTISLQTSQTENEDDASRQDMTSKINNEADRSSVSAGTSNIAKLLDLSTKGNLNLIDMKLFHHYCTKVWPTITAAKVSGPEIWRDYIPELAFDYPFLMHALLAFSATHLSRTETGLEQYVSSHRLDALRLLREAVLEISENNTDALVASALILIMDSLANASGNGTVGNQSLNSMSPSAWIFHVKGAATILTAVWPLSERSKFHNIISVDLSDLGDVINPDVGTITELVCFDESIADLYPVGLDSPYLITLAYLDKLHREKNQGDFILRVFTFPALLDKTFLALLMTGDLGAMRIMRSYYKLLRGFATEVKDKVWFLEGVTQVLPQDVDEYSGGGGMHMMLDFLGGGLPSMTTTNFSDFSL
How it was run: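 For each ungapped eight-base word taken together with its reverse complement, the Universal PBM Analysis Suite assigned an E-score. Binding data came from GST-tagged yeast transcription factors, applied at about 100-200 nM, on universal all-10-mer Agilent arrays made double-stranded by primer extension. Fluorescent anti-GST marked bound protein, and scans were normalised with masliner.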

| Sequence | PBM E-score |
| --- | --- |
| CCTGGGCA | -0.15 |
| ATTAAGCG | 0.317 |
| ACGTCTAT | -0.182 |
| CGTCCGGA | -0.104 |
| CACGTATA | 0.433 |
| GGCAAACC | -0.148 |
| AGCGTTCA | -0.0376 |
| TAACCTCA | -0.0456 |
| AGCTATGA | -0.0903 |
| AAATCTGA | -0.145 |
| CATCGGAC | -0.0234 |
| GCGGTGAA | -0.025 |
| AAACAGCC | -0.093 |
| GCTACGAA | 0.395 |
| ATGATTGG | -0.205 |
| ACTCATCC | -0.0482 |
| GACCCACC | -0.113 |
| GATACCCA | 0.00945 |
| AACGCTCC | -0.037 |
| CAATCTGG | -0.267 |
| CACATTAA | -0.133 |
| TAGATCAA | 0.0327 |

| Sequence | PBM E-score |
| --- | --- |
| AAAGTGAT | -0.0453 |
| AAAGCGTA | 0.262 |
| GCACGATA | -0.0168 |
| ACTAAAGC | -0.0826 |
| AGCCTGAC | -0.13 |
| GCATGTAA | -0.0858 |
| ATCAGGCA | -0.275 |
| ACCTCTCT | -0.169 |
| GGAACTCA | -0.217 |
| TCATGGAA | -0.0507 |
| AGTAGCAC | -0.105 |
| CTGACCGC | -0.0413 |
| AAGGATAG | -0.143 |
| TCATAGGA | -0.0211 |
| ACATGGGT | -0.0993 |
| ACAAGGGT | -0.0246 |
| CGCGGATA | 0.0827 |
| GGTAGTCA | -0.112 |
| ATCACCAG | -0.124 |
| ACTGAAAA | 0.129 |
| CTTCTCTC | -0.0112 |
| ACGCCTCG | 0.251 |

| Sequence | PBM E-score |
| --- | --- |
| CTTAGCTA | -0.103 |
| AGCTACGC | 0.148 |
| TAAAGAAA | 0.0128 |
| ACGTTAGG | -0.0536 |
| ACGAACGC | 0.323 |
| CCATGAAA | -0.127 |
| CTAGCCAC | -0.208 |
| GCGTTGTA | 0.127 |
| CCGGAGAC | -0.0181 |
| ACTAGTAT | -0.0348 |
| CAGAGGAC | -0.0978 |
| ATAGAACC | -0.206 |
| ACAGACCA | -0.00784 |
| ACGGATCT | 0.032 |
| GTATTCGA | 0.165 |
| GTGGGCGA | -0.212 |
| GGGAAGAC | -0.131 |
| TAGCTAAA | 0.119 |
| AGGGATGG | -0.0173 |
| AGTTTTGC | 0.0231 |
| CGGACTAA | -0.0805 |
| CACACCAG | -0.194 |

| Sequence | PBM E-score |
| --- | --- |
| ACGACGCA | 0.389 |
| AATCCCCA | -0.199 |
| CTGCACAG | -0.0455 |
| AGATTTTA | -0.129 |
| TATTGGGA | -0.0703 |
| GGAGGACC | -0.299 |
| CACCGATG | -0.0949 |
| CCCGATTA | 0.0106 |
| AGGACTGC | -0.241 |
| AGACTCAG | -0.106 |
| GGTACTAC | 0.0298 |
| CTTCGGGC | -0.0715 |
| AGTAGCCC | -0.25 |
| CGCAGTTC | 0.112 |
| CCACTAAG | -0.176 |
| AGTGGCAT | -0.0178 |
| GCGAAGCA | 0.0249 |
| CACCGGAA | 0.0707 |
| CCATGTGA | -0.253 |
| AAATTAGA | -0.0162 |
